From ChEMBL document CHEMBL4888484, “Replenishing the malaria drug discovery pipeline: Screening and hit evaluation of the MMV Hit Generation Library 1 (HGL1) against asexual blood stage Plasmodium falciparum ,using a nano luciferase reporter read-out” (2022) come the findings set out here.

Molecules are shown by their SMILES. Out of some 150,000 compounds screened, about 540 (0.36%) showed an effect of 50% or more. Some of the results follow.

The test system of this test is Plasmodium falciparum. Kind of test: Primary screen in NF54 nanoGlo assay, in single point, at 2uM, 72h; a lower Z score goes with more inhibition. Format: functional, Erythrocyte. The following applies: timepoint 72 hour.
As to `C=CCn1cc(CN[C@@H](CCC)c2nccn2C)c(C)n1`, the “% Inhibition” value is given as -9% and the Z score was found to be 1.85.

Consider `Cc1nc(-c2cccc(NC(=O)Cc3c(C)noc3C)c2)cs1`, for which the “% Inhibition” value came out at 17% and the Z score is given as -2.

For the molecule `CC(C)(C)OC(=O)NCC1(c2nc(-c3ccncc3)no2)CCCC1`, the “% Inhibition” value came out at 7% and the Z score is given as -0.72.

`Cc1nc(C#N)c(C#N)n1Cc1ccccn1`: the “% Inhibition” value is reported as -7% and the Z score is 1.35.

Turning to `CN1CCCC[C@@H]1CN1CCN(S(=O)(=O)c2cccs2)CC1`, the “% Inhibition” value was -12% and the Z score amounted to 1.54.

With `COCCc1noc([C@@H]2CCCN2C(=O)c2ccc(C#CC(C)(C)O)cc2)n1`, the “% Inhibition” value is -14% and the Z score is given as 1.87.

In the case of `CN1CCCC1C1CCCN1C(=O)C1COc2ccccc2C1` (configuration not stated), the “% Inhibition” value is reported as -8% and the Z score came to 1.07.

For `COCCc1nsc(Oc2cc(F)ccc2C)n1`, the “% Inhibition” value is -8% and the Z score was 1.08.

On to `CCOC(=O)CCNS(=O)(=O)C1CCOC(C(F)(F)F)C1` (configuration not stated), for which the “% Inhibition” value is -3% and the Z score is 0.56.

With `CCOc1ncccc1C(=O)Nc1ccccc1-c1ccccc1`, the “% Inhibition” value was -6% and the Z score is listed as 0.47.

On to `CN1CCC2C(CCCN2C(=O)Nc2cc(Cl)ccc2Cl)C1` (configuration not stated), for which the “% Inhibition” value is reported as -15% and the Z score worked out at 2.88.

Consider `Cn1cc(S(=O)(=O)N[C@H]2CCN(c3ccc4nncn4n3)C2)cn1`, for which the “% Inhibition” value is on record as -13% and the Z score was 2.08.

On to `O=C(N[C@H]1CCCC[C@@H]1OCc1ccccc1)c1n[nH]c2c1CCCC2`, for which the “% Inhibition” value is given as -1% and the Z score was determined as 0.13.

On to `C[C@@H](COc1ccccc1)N1CCC(CCC(=O)NCc2ccc(F)cc2)CC1`, for which the “% Inhibition” value is recorded as -5% and the Z score came to 0.64.

Take `COc1cc(N[C@@H](C)C(=O)NCC(F)(F)F)cc(OC)c1OC`: the “% Inhibition” value is given as -8% and the Z score is listed as 0.98.

For `NC(=NO[C@H]1CCN(C2CCOCC2)C1=O)c1ccc(F)cc1`, the “% Inhibition” value is given as -5% and the Z score is reported as 0.81.

With `CC[C@H](Nc1ccc(CS(=O)(=O)C(C)C)cc1)C(N)=O`, the “% Inhibition” value is reported as -7% and the Z score was found to be 1.23.

As to `O=C(N[C@H](c1ccccc1)c1cc2ccccc2o1)c1cnccn1`, the “% Inhibition” value is -3% and the Z score was determined as 0.49.

Consider `CCO[C@H]1[C@H](NC(=O)c2ccccc2OC)c2ccccc2C12CCNCC2`, for which the “% Inhibition” value was 2% and the Z score is reported as -0.31.

Take `CCC[C@H](C)c1nc(N2CCN(C(=O)Cc3ccc(OC)cc3)CC2)c2c(C)nn(-c3ccc(F)cc3)c2n1`: the “% Inhibition” value is recorded as -9% and the Z score turned out to be 1.35.

For `COc1cc(Cl)c(C)cc1-n1ccnc(NCCCc2ccccc2)c1=O`, the “% Inhibition” value is -2% and the Z score was found to be 0.18.

Take `Cc1noc(C)c1CC(=O)N1CC(c2ncc(C)n2Cc2ccccc2)C1`: the “% Inhibition” value was -5% and the Z score was found to be 0.63.

As to `O=C(Nc1cnc(Oc2ccccc2)nc1)c1cnccn1`, the “% Inhibition” value was -6% and the Z score came to 1.22.

With `CCc1cnc(C)nc1NC[C@H]1CCCN(CCO)C1`, the “% Inhibition” value is given as -8% and the Z score was found to be 1.5.

With `Cn1c(=O)[nH]c(=O)c2c1nc(N1CCCCCC1)n2C[C@H](O)c1ccccc1`, the “% Inhibition” value is listed as 1% and the Z score is -0.09.

`Cc1cc(=O)c2cccc(C(=O)N3CCC(O)CC3)c2[nH]1`: the “% Inhibition” value is 8% and the Z score was -1.5.

As to `COc1cccc(CN2CC[C@@]3(C2)C(=O)N(CC(N)=O)c2ccccc23)c1`, the “% Inhibition” value was 6% and the Z score was -1.16.

With `CC(=O)Nc1c2n(c3ccccc13)C[C@@](C)(C(=O)NC1CCCCCC1)N(C1CCC(C)CC1)C2=O` (some centres not stated), the “% Inhibition” value is given as -8% and the Z score is given as 0.74.

For `Cn1c(CN2CCO[C@H](c3cccnc3)C2)cc2ccccc21`, the “% Inhibition” value is -6% and the Z score is 0.76.

Turning to `CS(=O)(=O)N1CCC[C@H](CNC(=O)Nc2ccc(-c3ccco3)cc2)C1`, the “% Inhibition” value is -19% and the Z score was determined as 3.04.

As to `O=C1C(=O)N(C2CCCCC2)C(=O)N1C1CCCCC1`, the “% Inhibition” value is -17% and the Z score was 2.16.

On to `CC1CCN(C(=O)c2cc(NC(=O)c3cc(C(F)(F)F)cc(C(F)(F)F)c3)ccc2N2CCC(C)CC2)CC1`, for which the “% Inhibition” value was -13% and the Z score was 2.53.

Turning to `Cc1ccc(-c2nc(Cn3nnc(-c4nc(-c5ccc(Cl)cc5)no4)c3C)c(C)o2)cc1`, the “% Inhibition” value came to 2% and the Z score is listed as -0.23.

For `CN1CCN(C(=O)C2C3C(=O)N(CCOc4ccccc4)C[C@@]34C=C[C@@H]2O4)CC1=O` (some centres not stated), the “% Inhibition” value is on record as -10% and the Z score worked out at 1.33.

On to `Cc1c(S(=O)(=O)NCc2cccn2Cc2ccccc2)cnn1C(F)F`, for which the “% Inhibition” value came out at 2% and the Z score is -0.2.

As for `CC(NC(C)C(O)Cc1ccccc1)c1ccco1` (configuration not stated), the “% Inhibition” value is 2% and the Z score was -0.16.

Turning to `CCOc1ccc(S(=O)(=O)N(C)C)cc1NC(=O)Nc1cnn(CC(C)C)c1`, the “% Inhibition” value is listed as -9% and the Z score worked out at 0.94.

`COCCn1nnc2cc(S(=O)(=O)N3CCC[C@H](C(=O)NCc4ccccc4F)C3)ccc21`: the “% Inhibition” value was -15% and the Z score was determined as 2.38.

Turning to `O=C(NCC1(CN2CCCC2)CC1)[C@H](O)C1CCCCC1`, the “% Inhibition” value is reported as 5% and the Z score is listed as -0.71.

With `O=C(COc1cccc(Cl)c1)c1ccc2c(c1)N(Cc1nc(C(=O)NCC3CC3)co1)C(=O)CO2`, the “% Inhibition” value is -8% and the Z score is on record as 0.95.

As to `Cc1cc(C(=O)N2CCC[C@H](c3nc(-c4ccc(F)cc4)no3)C2)cnn1`, the “% Inhibition” value is -4% and the Z score amounted to 0.64.
